Assay results taken from PubChem BioAssay (Tox21).
The shares of active, inactive and inconclusive entries below differ from those in the screen. Potencies beside an inconclusive call are fits to weak or partial responses and may not hold up. Active and inactive are the calls of the source. Calls follow the shape of the dose curve; as a rule, active = well fitted inhibition curve with a large enough effect in the signal ratio in the repeat runs (not every such curve was filed as active); inconclusive = weak or mixed curves, or effect the other way; inactive = no such curve, though single readings can be large or run the other way; the % refers to the signal ratio.

Each molecule was assayed against Glucocorticoid receptor (Homo sapiens) (UniProt P04150) (assay: qHTS assay to identify small molecule antagonists of the glucocorticoid receptor (GR) signaling pathway (AID 720692)). Conditions: GR-bla HeLa, beta-lactamase FRET ratio, dexamethasone-stimulated, 18 h; activity change, negative = inhibition: at 58.5 µM (top of the series) unless noted.
Sequence of UniProt P04150 (P04150 whole entry, looked up): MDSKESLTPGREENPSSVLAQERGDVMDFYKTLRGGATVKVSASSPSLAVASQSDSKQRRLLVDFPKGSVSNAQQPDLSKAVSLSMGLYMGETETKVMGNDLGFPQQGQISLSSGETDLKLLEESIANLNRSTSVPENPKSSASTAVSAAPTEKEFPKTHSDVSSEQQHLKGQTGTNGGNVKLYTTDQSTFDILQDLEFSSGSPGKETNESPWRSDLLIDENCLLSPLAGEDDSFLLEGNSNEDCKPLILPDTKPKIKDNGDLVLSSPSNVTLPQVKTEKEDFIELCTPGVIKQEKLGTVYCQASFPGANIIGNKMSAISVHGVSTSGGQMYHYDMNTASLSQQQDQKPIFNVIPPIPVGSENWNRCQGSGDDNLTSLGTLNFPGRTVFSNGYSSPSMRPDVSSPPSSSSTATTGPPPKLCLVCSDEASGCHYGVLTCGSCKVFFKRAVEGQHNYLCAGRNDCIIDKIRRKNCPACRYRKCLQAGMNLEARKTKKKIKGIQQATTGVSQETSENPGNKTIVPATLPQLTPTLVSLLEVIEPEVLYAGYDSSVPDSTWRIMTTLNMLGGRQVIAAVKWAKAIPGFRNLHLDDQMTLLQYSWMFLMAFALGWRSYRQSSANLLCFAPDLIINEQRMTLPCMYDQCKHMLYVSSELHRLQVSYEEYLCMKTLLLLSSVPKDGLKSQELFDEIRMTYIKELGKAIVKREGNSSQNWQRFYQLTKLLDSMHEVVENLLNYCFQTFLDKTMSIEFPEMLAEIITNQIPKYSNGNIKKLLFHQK
Summary of the method: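 Inhibition of dexamethasone-driven (5 nM final) beta-lactamase expression was measured in GRE-reporter HeLa cells over 18 h at 37C. Fluorescence was read after 2 h with the B/G FRET substrate at room temperature.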
% is scaled to controls: 0 for no effect and ±100 for the full control effect; potency is read from the fitted curve at half-maximal effect; tags tell the direction and shape of the fitted curve or compound fluorescence and quenching.

SMILES	activity change, negative = inhibition	Potency
C=CCOC(=O)c1ccccc1N	inconclusive: 4.8% [at 78.9 µM]	–
CC(C)(O)C(Cl)(Cl)Cl	inconclusive: 3.33%	–
ClC(Cl)=C(Cl)C(Cl)=C(Cl)Cl	inconclusive: 1.88%	–
C=C(C)C(=O)OCC1CO1 (centres undefined)	–	inactive
CCBr	–	inconclusive: 55.8 µM [activator, single point]
O=NN1CCNCC1	inconclusive: -16.9% [at 78.9 µM]	–
C=CC(=O)NCNC(=O)C=C	–	inconclusive: 21.8 µM [activator, partial curve, poor fit]
CC1=C2C[C@H]3[C@@H](CC=C4C[C@@H](O)CC[C@@]43C)[C@@H]2CC[C@]12O[C@@H]1C[C@H](C)CN[C@H]1[C@H]2C	–	inconclusive: 5.35 µM [activator, full curve, poor fit]
CN1C(=O)NC(=O)C(C)(C2=CCCCC2)C1=O (centres undefined)	inconclusive: 1.42%	–
NCC(CC(=O)O)c1ccc(Cl)cc1 (centres undefined)	–	inactive
CCCN(CCCl)c1c([N+](=O)[O-])cc(C(F)(F)F)cc1[N+](=O)[O-]	inconclusive: -6.58%	–
OCC1CO1 (centres undefined)	–	inactive
II	–	inactive
OCCBr	–	inactive
